From the supplement of paper PMC10126150 come the findings set out here.

This series concerns ATP. Kind of series: switch fluorescence ratio, 500 uM ATP over buffer (Cy3 cluster intensity, sum of 5 cycles each) (fold (ratio)); higher = stronger signal-on switching upon ATP binding; sequences stand for … in TCGTCGGCAGCGTCAGATGTGTATAAGAGACAGTTTTTTTTTTTTTTTTTTTTTTTTT…TC. The following applies: aptamer strand: ATP DNA aptamer (quencher-CACCTGGGGGAGTATTGCGGAGGAAGG + anchor), 100 nM annealed; ATP concentration: 500 uM; one replicate. The procedure, abridged: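 The fluorescence ratio divides summed target-cycle Cy3 intensity by summed buffer-cycle Cy3 intensity for each cluster and is averaged per switch-domain sequence. Cy3-labelled switching-strand clusters on a modified Illumina MiSeq flow-cell were annealed to 100 nM quencher-labelled ATP aptamer, then imaged in selection buffer and again after 15 min with 500 uM ATP at 22 °C. Five such cycles were run, with NaOH stripping and re-annealing between them, and clusters outside 100-1000 RFU were excluded.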

Values marked as one replicate rest on one cluster of the flow cell; about a third of the high ones do not repeat.
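Note: ATP exposure 15 min at 22 °C before imaging.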

As to AAGGGGGTCG, the switch fluorescence ratio is 0.862.
For CCGAGTTCAC, the switch fluorescence ratio came to 1.08.
The result for CCATTCACCA reads 1.02; that for GATAGTAACC, 0.971.
With AAATAGAATT, the switch fluorescence ratio came out at 1.
Take CACCAGTTGA: the switch fluorescence ratio stood at 1.12.
Regarding AGCCGTGGTC, the switch fluorescence ratio turned out to be 0.999.
Regarding ATTCCATTCA, the switch fluorescence ratio is 1.03.
Regarding TTTGCGCTCC, the switch fluorescence ratio is 1.02.
As to CATCTGCTTA, the switch fluorescence ratio turned out to be 1.69.
As for CTTATCTTAC, the switch fluorescence ratio was 1.11.
As for TGAAATGTAG, the switch fluorescence ratio amounted to 0.962.
Then AAGTCACTTA, with 1.06; and TAGCAGAAGC, with 1.03; and AATAAAGCAG, with 0.993.
Turning to TGGTTGAGCC, the switch fluorescence ratio stood at 1.02.
On to TCGAACCCTC, for which the switch fluorescence ratio stood at 1.01.
The result for GGCCCCGGAG reads 1.12; that for TCGATAGGTG, 1.06; that for CAGACCTGGC, 0.894.
On to GACTGATTTT, for which the switch fluorescence ratio came out at 0.987.
As to AGATTCCACG, the switch fluorescence ratio worked out at 1.1.
In the case of TTTATTCGCA, the switch fluorescence ratio came to 1.1.
Consider CGTAGGCTCA, for which the switch fluorescence ratio was found to be 1.01.
For TGGTCCAGCA, the switch fluorescence ratio turned out to be 1.02.
Regarding TTGAGTGCTA, the switch fluorescence ratio amounted to 0.974.
GGAGTCCCGC: the switch fluorescence ratio worked out at 0.982.
In the case of TCGAATCTTC, the switch fluorescence ratio amounted to 1.05.
Consider GTACTAAACC, for which the switch fluorescence ratio came to 1.14.
In the case of GGACAAATGG, the switch fluorescence ratio stood at 1.01.
In the case of ATCCTCACGA, the switch fluorescence ratio amounted to 1.06.
On to CCCCCTGTTT, for which the switch fluorescence ratio was 1.26.
Turning to GCGGCTACGG, the switch fluorescence ratio was 0.999.
Take CCCTTGTTCG: the switch fluorescence ratio stood at 0.974.
With GTTCATCATC, the switch fluorescence ratio worked out at 1.01.
Regarding GTGGGCTCTC, the switch fluorescence ratio was 1.01.
With TATACCAGAG, the switch fluorescence ratio worked out at 1.04.
On to TTTGTCTTCC, for which the switch fluorescence ratio turned out to be 1.68.
On to TCGAATTTCT, for which the switch fluorescence ratio was found to be 0.979.
For TCCCATACAT, the switch fluorescence ratio is 1.04.
Take CCATGACCT: the switch fluorescence ratio was 1.36.
As to TTTGTGAGA, the switch fluorescence ratio was determined as 1.02.
Regarding TCTGATGAAA, the switch fluorescence ratio was found to be 1.
For ACAAATTCCT, the switch fluorescence ratio worked out at 1.1.
As to TCATCATTTC, the switch fluorescence ratio was 1.01.
Regarding TATGAGACGT, the switch fluorescence ratio was determined as 0.982.
On to CGAGGCTCTT, for which the switch fluorescence ratio is 1.04.
In the case of GACTCAGCCA, the switch fluorescence ratio is 1.55.
On to AAAATGGT, for which the switch fluorescence ratio amounted to 1.
For the sequence CTCCATTGCG, the switch fluorescence ratio was found to be 1.05.
GGGTGTATCA: the switch fluorescence ratio is 0.958.
As to AGACCTGTTT, the switch fluorescence ratio was determined as 1.
On to ATAAGATCTT, for which the switch fluorescence ratio came out at 0.996.
Consider GGTCTCATGA, for which the switch fluorescence ratio was found to be 1.01.
Take GACGTAACGT: the switch fluorescence ratio was 1.06.
As to TGCTTATCCC, the switch fluorescence ratio was 1.37.
Then TCCGTACGTC, with 1.45; and ACCGGGAGTG, with 0.983.
On to TCTGCGGACT, for which the switch fluorescence ratio turned out to be 1.11.
TCAAATTCG: the switch fluorescence ratio is 0.995.
Consider AAAAGACACC, for which the switch fluorescence ratio was 1.02.
Take AAGAGAGACT: the switch fluorescence ratio amounted to 1.01.
Then CGCATGACAG, with 1.
Turning to GCCGGGCATA, the switch fluorescence ratio amounted to 1.09.
With CATTGATTCG, the switch fluorescence ratio is 1.01.
Take AGGTACTTTA: the switch fluorescence ratio was determined as 1.01.
The result for CACAGGGCTT reads 0.986; that for ATCCATGTG, 1.07.
Then CGTTCGGCGC, with 1.05.
Take TTCTTTGTTA: the switch fluorescence ratio is 1.03.
For the sequence TGTAGGGCGC, the switch fluorescence ratio was found to be 1.03.
The result for ATTGCGGATT reads 1.03.
Then CTAGCTGCGT, with 0.955; and CATGTCTGAT, with 0.941.
With GCCCTGACTT, the switch fluorescence ratio worked out at 1.08.
The result for TAAGGAGTG reads 0.916; that for AAAAATCTTG, 1.01; that for TGTTATTTAA, 0.982.
On to TCACGGGGTG, for which the switch fluorescence ratio was determined as 1.04.
Take GTGTGTACGA: the switch fluorescence ratio turned out to be 1.03.
Regarding GCCATTAGCG, the switch fluorescence ratio came to 0.972.
Consider GGCTTCTTTG, for which the switch fluorescence ratio was 0.936.
Then GTGTTGAGCA, with 0.988.
Then GTCTAAAATG, with 0.942.
Consider CCCCGTGTTC, for which the switch fluorescence ratio amounted to 1.63.
The result for CTGGTGAGA reads 1.03; that for CACTTCAAAT, 0.977.
In the case of TTTAGTGGAT, the switch fluorescence ratio came out at 1.02.
The result for CGCGTGGGTC reads 1.1.
In the case of GTGGAGGCTC, the switch fluorescence ratio was 0.973.
Turning to TTAGGCACAG, the switch fluorescence ratio was 0.995.
As for CTAGTTCCTA, the switch fluorescence ratio turned out to be 1.05.
Consider CTATGGGGCA, for which the switch fluorescence ratio was 1.
As for GTCGATTCGC, the switch fluorescence ratio amounted to 0.97.
Then CCTTAGCTTG, with 1.16; and CCGCTTATGA, with 4.79.
The result for AAAAGTGATA reads 1.
Then AAAGTATTA, with 1.13.
For TTTAGAAGCT, the switch fluorescence ratio is 0.98.
In the case of CTAGATCAGA, the switch fluorescence ratio is 1.
Regarding AGCTTAAGTC, the switch fluorescence ratio came to 0.991.
For TCGCACCGC, the switch fluorescence ratio is 1.38.
Turning to CGCGGAGAGT, the switch fluorescence ratio is 1.01.
Consider TTTAAATAAT, for which the switch fluorescence ratio amounted to 0.979.
Consider CCGCCTCGAG, for which the switch fluorescence ratio was 1.39.
For the sequence AGAGCGGGCA, the switch fluorescence ratio was 1.07.
Take TCATCGTAGC: the switch fluorescence ratio was found to be 1.07.
Take AGTTTTCGGG: the switch fluorescence ratio was determined as 0.954.
GGCCAAAGAT: the switch fluorescence ratio amounted to 0.963.
Turning to CGAGATTTTG, the switch fluorescence ratio came to 0.958.
As for TCGTCTATCG, the switch fluorescence ratio is 0.976.
Then CCGGGGCATC, with 5.2.
Then TCATATCAGT, with 0.969; and CCTGTATGAT, with 0.996.
With GTTTATAACT, the switch fluorescence ratio was 1.
GGTAGCTCTT: the switch fluorescence ratio was found to be 0.978.
For TTGATTCTGT, the switch fluorescence ratio turned out to be 1.02.
GATTATGTTG: the switch fluorescence ratio was determined as 0.911.
Regarding GGCTTTTCGA, the switch fluorescence ratio was 1.02.
The result for CTCCGGCAC reads 1.55.
